Source: PubChem BioAssay AID743279 (National Center for Advancing Translational Sciences (NCATS), 2014)
Out of some 360,000 compounds screened, about 17,000 (4.7%) were called active. The shares of active, inactive and inconclusive entries below differ from those in the screen. Cut-off read from the data, not from the text of the source: active = activity change below about -50%; inconclusive = mostly about -30% to -49%; inactive = weaker than that.

Assay: qHTS for Inhibitors of Inflammasome Signaling: IL-1-beta AlphaLISA Primary Screen
Settings: THP-1 LPS/ATP IL-1B secretion, 16 h; at 57.5 µM, stronger effect = lower value
Summary of the method: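 Secreted IL-1B measured by AlphaLISA bead assay after 16 h compound exposure of THP-1 cells; compounds (final up to 57.5 uM) added 1 h before LPS (250 ng/mL) and ATP (1.25 mM) stimulation; lower signal means less secretion.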
% is set by controls: 0 for no effect and ±100 for the full control effect.

| SMILES | activity change |
| --- | --- |
| CC(/C=C1\SC(=S)N(CCCC(=O)Nc2ccc(C(=O)O)c(O)c2)C1=O)=C\c1ccccc1 | active: -54.8% |
| CCOc1ccc(N2C(=O)CS/C2=C(\C(Cl)=C(Cl)Cl)[N+](=O)[O-])cc1 | inconclusive: -32.6% |
| CCCCn1c(N)c(N(CCOC)C(=O)CCS(=O)(=O)c2ccc(Cl)cc2)c(=O)[nH]c1=O | inactive: 5.99% |
| CC1CC(C)CN(C(=O)/C=C/c2ccc([N+](=O)[O-])s2)C1 (stereo not given) | inconclusive: -30.7% |
| O=C(NCCc1ccccc1)c1oc2ccccc2c1COc1ccccc1 | inconclusive: -49.4% |
| COc1ccc(CN(C)CC(=O)Nc2ccc(SC(F)F)cc2)cc1OC | inconclusive: -43.3% |
| CC1=C(C(=O)Nc2nc3ccccc3s2)C(c2ccco2)C(C#N)=C(SCC(=O)NC2CCCCC2)N1 (stereo not given) | inconclusive: -36.2% |
| CCCc1cc(=O)oc2c3c(cc(OCC(=O)NCc4ccncc4)c12)OC(C)(C)CC3 | inconclusive: -47.2% |
| Cc1c2cnn(CC(=O)NCCCN3CC(C)CC(C)C3)c(=O)c2c(C)n1Cc1ccccc1Cl (stereo not given) | active: -58.2% |
| CN1CCN(c2sc(S(C)(=O)=O)nc2S(=O)(=O)c2ccc(Cl)cc2)CC1 | inconclusive: -42% |
| COc1ccc(C)cc1Nc1nc(-c2c[nH]c3ccccc23)cs1 | inconclusive: -39.4% |
| O=C1C(Br)=Cc2cccc3cccc1c23 | active: -75% |
| COCCN(CC(=O)Nc1cccc(C)c1C)C(=O)Cc1sc(C)nc1-c1ccc(F)cc1 | inactive: 0% |
| CCOC(=O)C1(CCOc2ccccc2)CCN(Cc2ccc(OC)cc2)CC1 | inconclusive: -35.4% |
| Fc1cc(F)c(F)c(SCCc2ccncc2)c1F | inconclusive: -42.5% |
| O=C(Nc1ccccc1)/C(=C1\CCCN1)[N+](=O)[O-] | inconclusive: -34.7% |
| CCN1C(=O)[C@H]2[C@@H](c3ccc(OC)cc3)N[C@]3(CCCN(Cc4ccc(Br)cc4)C3=O)[C@H]2C1=O | inactive: 32.6% |
| CCOC(=O)c1cc(-c2ccccc2)sc1NC(=O)C(C)N1C(=O)c2ccccc2C1=O (stereo not given) | active: -52.7% |
| COCCN=C1N[C@@H](c2ccc(Br)cc2)C(C(=O)OC)=C(C)N1Cc1ccccc1 | inconclusive: -32.6% |
| C=CCn1c(CNc2ccccc2)nnc1SCC(=O)N/N=C/c1ccccc1O | inactive: 78.3% |
| COc1ccc(CN2C(=O)c3ccccc3C2C(=O)NCCc2ccccc2)c(OC)c1 (stereo not given) | inconclusive: -33.7% |
| Cc1cc(C(c2ccc(O)cc2)c2cc(C)c(O)cc2C)c(C)cc1O | active: -81.8% |

| SMILES | activity change |
| --- | --- |
| Cc1ccc(N2CCN(C(=O)c3cccc([N+](=O)[O-])c3)CC2)cc1Cl | inconclusive: -34% |
| Cc1cc(C)c2nc(NC(=O)c3ccc4c(c3)OCO4)sc2c1 | inconclusive: -37.2% |
| O=C(CN1CCN(c2ccccc2)CC1)Nc1ccccc1Sc1ccccc1 | inconclusive: -30.1% |
| Cc1ccc(Cn2c(=N)n(CC(=O)c3ccc([N+](=O)[O-])cc3)c3ccccc32)cc1 | active: -102% |
| CC1CC(C)CN(C(=O)c2ccc(S(=O)(=O)N3CC(C)CC(C)C3)cc2)C1 (stereo not given) | active: -77% |
| COc1cc(SC)ccc1C(=O)NCC1CCCCC1 | inconclusive: -31.3% |
| CC(C)(C)SCCNC(=O)c1ccc(Cl)c([N+](=O)[O-])c1 | inconclusive: -48.8% |
| CN(C)/C=C(\C=O)c1ccc(Cl)cc1Cl | inconclusive: -42% |
| O=C(/C=C/c1ccc2c(c1)OCO2)c1ccccn1 | inactive: -1.49% |
| CCC(=O)Nc1cccc(-c2nnc(-c3ccccc3)o2)c1 | inconclusive: -36.8% |
| Cc1ccc(CN2C(=O)CSCC2(C)C(=O)NCc2ccccc2)cc1 (stereo not given) | inactive: -9.66% |
| COc1cc2c(cc1C1NC(=S)NC(C)=C1C(N)=O)CCCC2 (stereo not given) | inconclusive: -48.1% |
| COc1ccc(CCNC(=O)c2cc(-c3ccc(Cl)c(Cl)c3)oc2C)cc1 | inconclusive: -38.9% |
| Cc1ccc(CNS(=O)(=O)c2c(C(=O)N3CCCCC3)c(C)n(C)c2C)cc1 | inconclusive: -42.8% |
| CCN1CCN(C2CCCCC2NS(=O)(=O)c2ccc(Cl)cc2)CC1 (stereo not given) | inconclusive: -33.3% |
| O=[N+]([O-])c1ccc(Nc2nc(N/N=C/c3cccc(F)c3)nc(N3CCCC3)n2)cc1 | inconclusive: -38.7% |
| c1csc(-c2nc3nc4ccccc4nc3n2Cc2ccc3c(c2)OCO3)c1 | inconclusive: -32.3% |
| Cc1ccc(NC(=O)CSc2cccc[n+]2[O-])c([N+](=O)[O-])c1 | inactive: 13.1% |
| Cc1ccc(C(CCNC(C)c2cccs2)c2ccco2)cc1 (stereo not given) | inconclusive: -48% |
| Cn1/c(=N/N=C/c2ccccn2)sc2ccccc21 | inconclusive: -43.5% |
| Cc1cccnc1C(NC(=O)C1CCN(Cc2ccc(Cl)c(Cl)c2)CC1)c1ccc(Cl)cc1 (stereo not given) | inconclusive: -44.1% |
| COCC(=O)N1CCCN(c2nc3c(C)cccc3cc2C#N)CC1 | inconclusive: -36.3% |

| SMILES | activity change |
| --- | --- |
| Cc1cccn2c(=O)c3cc(C(=O)NCCCn4ccnc4)n(C)c3nc12 | inconclusive: -44.7% |
| CCCCC(O)(c1ccc(F)cc1)C(CN1CCOCC1)c1ccc(Cl)cc1 (stereo not given) | inconclusive: -42.1% |
| CCOC(=O)COc1ccccc1/C=C1/NC(=O)NC1=O | inconclusive: -49.5% |
| Cc1cccc(Cn2ccc(NC(=O)c3ccc4c(c3)OCO4)n2)c1 | active: -52.5% |
| COc1ccc(NC(=O)CCCn2nc(C)c3c(C)n(-c4ccccc4)nc3c2=O)cc1OC | inconclusive: -33.1% |
| CN(C)c1ccc(C=NNC(=S)Nc2ccc(F)cc2)cc1 | inconclusive: -35.2% |
| Cc1ccccc1NC(=O)Cc1nnc(SCC(=O)N2CCOCC2)n1C | inactive: 8.91% |
| COCc1nnc(NC(=O)c2cccc(NC(=O)c3ccccc3)c2)s1 | inactive: 33.3% |
| c1ccc2c(c1)C(=Nn1cnnc1)c1ccccc1-2 | inconclusive: -37.2% |
| CCCc1ccc(OCc2ccc(C(=O)N3CCSCC3)o2)cc1 | inconclusive: -39.4% |
| NC(=O)CC(NC(=O)Cc1ccc(Br)cc1)c1ccc(NC2CCCCCC2)c([N+](=O)[O-])c1 (stereo not given) | inconclusive: -43.5% |
| COc1ccc2c(c1)OC[C@H]1[C@H]2N2C(=O)c3ccc(C)cc3NC(=O)[C@@]2(C)[C@H]1c1ccccc1 | inconclusive: -44.4% |
| COC(=O)c1ccc(OCc2nn[nH]n2)cc1 | inactive: -0.435% |
| Nc1ncn(C(=S)Nc2ccccc2)n1 | inconclusive: -40.2% |
| O=C(CNCc1ccccc1)NC1C2CC3CC(C2)CC1C3 (stereo not given) | inactive: -3.69% |
| CC1Cc2nc(SCC(=O)NCc3ccccc3)n(Cc3ccccc3)c(=O)c2S1 (stereo not given) | inconclusive: -30.3% |
| CCOC(=O)c1sc2nc(CSc3ccccc3)nc(NCCN(C)C)c2c1C | inconclusive: -49% |
| CC1(C)SC(=S)N(/N=C/c2ccccc2)C1N(O)C(=O)Nc1ccc([N+](=O)[O-])cc1 (stereo not given) | inconclusive: -42.7% |
| O=C(N/N=C/c1ccc([N+](=O)[O-])o1)C1CC1 | inactive: 13.2% |
| Cc1ccc(OCCSc2nnc(C)c(=O)n2N)cc1 | inactive: 2.44% |
| COc1cccc(C2c3c(-c4cc(Cl)c(C)cc4O)n[nH]c3C(=O)N2Cc2cccnc2)c1 (stereo not given) | inconclusive: -33.1% |
| O=C(CCCn1cc([N+](=O)[O-])cn1)Nc1cccnc1 | inactive: 22.4% |

| SMILES | activity change |
| --- | --- |
| COc1ccc(OC)c(CN2CCN(C(=O)c3cccc(S(=O)(=O)Nc4ccc(C)cc4)c3)CC2)c1 | active: -53.2% |
| COc1ccc(C(=O)Nc2nc3cc4c(cc3s2)OCCO4)c(OC)c1 | inconclusive: -40.7% |
| O=C(CNC(=O)c1ccc(F)cc1)N/N=C/c1cc(Br)ccc1OC(=O)/C=C/c1ccco1 | inactive: 149% |
| COc1cc2cc(CN(CCc3cccc(C)c3)C(=S)NCCCN3CCOCC3)c(=O)[nH]c2cc1OC | active: -61.7% |
| Cc1sc2nc(SCC(=O)N3CC(C)OC(C)C3)n(C)c(=O)c2c1C (stereo not given) | inactive: 9.55% |
| CCc1ccc(-c2ccc(SCc3ccccn3)nn2)cc1 | inconclusive: -36.5% |
| Cc1cc(C)n(-c2cc(N3CCN(C(=O)c4ccccc4C)CC3)ccc2[N+](=O)[O-])n1 | inconclusive: -45.5% |
| COCCNC(=O)c1cc(-c2cccnc2)nc2ccc(Br)cc12 | inconclusive: -30.4% |
| C[C@H](CO)N1C[C@H](C)[C@@H](CN(C)Cc2ccc(Oc3ccccc3)cc2)Oc2c(NC(=O)C3CC3)cccc2C1=O | active: -75.1% |
| CCOC(=O)c1c(NC(=O)CSc2cccc[n+]2[O-])sc(C(=O)Nc2ccccc2)c1C | inconclusive: -35.3% |
| COc1ccc2cc(Br)ccc2c1CC(=O)NC1CC(C)(C)NC(C)(C)C1 | active: -65.7% |
| COc1ccccc1CNc1nc(NCc2cccc(OC)c2OC)c2sccc2n1 | active: -90% |
| Cc1ccc(NC(=S)NCc2ccc3c(c2)cc(C)n3C)c(C)c1 | inactive: -2.4% |
| COc1ccc(C(=O)Nc2nc(C)cc(C)n2)cc1[N+](=O)[O-] | inconclusive: -43.5% |
| O=C(NC1=NCCS1)c1cccc(NC(=O)c2ccco2)c1 | inconclusive: -32.1% |
| NS(=O)(=O)c1cc(C(=O)OCC(=O)Nc2ccccc2[N+](=O)[O-])ccc1Cl | inactive: 7.38% |
| Cc1cc(Br)ccc1NC(=O)CN(C)C(=O)c1ccc(-n2cncn2)c([N+](=O)[O-])c1 | inconclusive: -31.2% |
| CCNC(=O)C1(C)CCCN(Cc2ccc(-n3ccnc3)cc2)C1 (stereo not given) | inactive: -9.86% |
| CC(=NNC(=S)N1CC2CCC(CC2)C1)c1cccc(C)n1 | active: -110% |
